The campaign covered roughly 7,900 compounds. About 400 (5.1%) showed an effect of 50% or more. The list shows a part of the results.
Molecular target: Parkinson's disease protein 7 (PARK7/DJ1) (human, UniProt Q99497)
Assay: primary screen, percent inhibition; read as competition with a fluorescent probe by fluorescence polarization; higher = more effect of the substance
Settings: 100 µM
Summary of the method: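 Covalent fragments at 100 μM final were incubated 2 h with 0.2 μM PARK7, then 20 nM probe JYQ-107 added for a further 2 h. Fluorescence polarization read at 480/520 nm; relative FP loss versus reference controls gave remaining enzyme activity.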

Chain of Parkinson's disease protein 7 (PARK7/DJ1) (Q99497 whole entry, looked up): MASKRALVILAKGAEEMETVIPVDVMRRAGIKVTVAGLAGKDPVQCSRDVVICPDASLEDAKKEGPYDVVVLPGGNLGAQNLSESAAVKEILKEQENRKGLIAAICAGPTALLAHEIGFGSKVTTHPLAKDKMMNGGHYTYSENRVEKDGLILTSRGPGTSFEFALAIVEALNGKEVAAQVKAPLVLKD

Row | Compound | Inhibition % [%]
1 | Cc1ccc(S(=O)(=O)F)cc1 | 2.62
2 | C=CC(=O)N1CCCC1c1ccc(Cl)cc1 (stereo not drawn) | 6.6
3 | C=CC(=O)NCCC(=O)N1c2ccccc2CCC1C (stereo not drawn) | 5.89
4 | Cc1ccc(C=CC(=O)N2CCC(CN)C2)o1 (stereo not drawn) | 0.775
5 | C#CCN(c1cnc(C#N)cn1)C1CCCC1 | 1.73
6 | O=C(CCl)NCc1cccs1 | 3.94
7 | O=S(=O)(F)C1CCc2ccccc21 (stereo not drawn) | 11.8
8 | C=CC(=O)N1CCC12CCOC2 (stereo not drawn) | 7.06
9 | Cc1cc(SC#N)cc(C)c1NC(=O)CCl | 4.28
10 | C=CC(=O)NCC1CC(=O)N(c2ccc(Cl)cc2)C1 (stereo not drawn) | 4.09
11 | C=CC(=O)NC1CC(C)OC(C)C1 (stereo not drawn) | 17.4
12 | O=S(=O)(F)CCn1ccc(-c2cccs2)n1 | 21.7
13 | C=CC(=O)Nc1nc2cnccn2n1 | 23
14 | Nc1ccc(S(=O)(=O)F)cc1 | 5.99
15 | C=CC(=O)N1CCN(C2CC2)c2c(C)cccc21 | 2.24
16 | CC1(C)OB(c2cccc(F)c2)OC1(C)C | 5.09
17 | CC1NC(=O)CCC1NC(=O)c1cccc(C#N)n1 (stereo not drawn) | 9.45
18 | C=CC(=O)N1CCOCC1CNS(C)(=O)=O (stereo not drawn) | 7.08
19 | C=CC(=O)N1CCOCC(C)C1 (stereo not drawn) | 6.12
20 | C=CC(=O)N1CCCCC1c1ccc(F)cn1 (stereo not drawn) | 0.15
21 | CC1C(=O)NC1c1ccccc1 (stereo not drawn) | 0.897
22 | C=CC(=O)Nc1nc(C2CCOCC2)cs1 | 14.5
23 | Nc1nccnc1S | 26.8
24 | C=CC(=O)N1CCOCC1c1ccco1 (stereo not drawn) | 5.49
25 | O=S1(=O)C=CC(c2ccccc2)C1 (stereo not drawn) | 12.1
26 | N#Cc1cc(N)ncn1 | 7.87

Row | Compound | Inhibition % [%]
27 | O=C(CCl)NCc1cccc(F)c1 | 11.2
28 | C=CC(=O)NC(C(=O)O)c1csc(Br)c1 (stereo not drawn) | 10.4
29 | C=CC(=O)N1CCCc2c(F)cccc21 | 7.24
30 | O=C1CNC(=O)N1CCCl | 8.82
31 | COCCOc1ccc(B(O)O)cc1 | 1.59
32 | Cl.ClCCCc1cn[nH]c1 | 2.68
33 | C=CC(=O)N1CC(C)(C)O[C@@]2(C[C@@H]3CC[C@H]2C3)C1 | 10.3
34 | O=C(NCc1ccccn1)N1CCCC(C2OCCO2)C1 (stereo not drawn) | 14.3
35 | CN1CCN(C(=O)CCCl)CC1.Cl | 5.12
36 | CCC1CCCCN1C(=O)Cn1cnc(C#N)n1 (stereo not drawn) | 11.1
37 | CCCN(c1cc(C#N)ncn1)C1CC1 | 5.8
38 | N#Cc1ccc(S(N)(=O)=O)cn1 | 7.37
39 | COc1ccc(C)cc1S(=O)(=O)Oc1ccccn1 | 17
40 | Cc1cccc(NC(=O)NC2C(=O)OCC2(C)C)n1 (stereo not drawn) | 7.98
41 | C=CC(=O)N1CCOCC1CC(F)F (stereo not drawn) | 17
42 | O=S(=O)(C=Cc1ccccc1)N1CCN2CCCC2C1 (stereo not drawn) | 13.3
43 | Cc1nc(C#N)c(N2CCN(C(=O)CCl)CC2)o1 | 38.4
44 | O=C(CCl)N1CCN(c2cccc(C(F)(F)F)c2)CC1 | 47.9
45 | CC(C)NC(=O)C(C#N)=Cc1ccc(CO)cc1 | 2.67
46 | C=CC(=O)N1CC(CCOC)C1 | -2.91
47 | CN1CCC(CNc2ccc(C#N)nc2)CC1 | 1.29
48 | CC1CCN(C(=O)C=Cc2cn(C)c(=O)n(C)c2=O)CC1 | 10.9
49 | CN(Cc1cccnc1)C(=O)n1ccnc1 | 10.8
50 | COc1cc(S(=O)(=O)n2cccn2)ccc1F | 1.65
51 | CC(C)C1NC(=O)C12CCSCC2 (stereo not drawn) | 0.524
52 | O=C(N1CCC(c2ccccc2)C1)n1ccnc1 (stereo not drawn) | 9.92

Row | Compound | Inhibition % [%]
53 | C=CC(=O)NCc1ccc(C2CC2)cc1 | 11.7
54 | C=CC(=O)Nc1cc(S(=O)(=O)N(C)C)ccc1Cl | 6.55
55 | CCn1nc(-c2ccc(F)cc2)oc1=O | 11.7
56 | O=C(N1CCOCC1)n1nnc2ccccc21 | 3.38
57 | C=CC(=O)NC1CCCN(C2CCCCC2)C1 (stereo not drawn) | 6.89
58 | CC1(C)OB(c2cccc3scnc23)OC1(C)C | 3.85
59 | C=CC(=O)N1CCCC1COc1cccnc1C (stereo not drawn) | 6.12
60 | O=C(CCl)N1CCc2sccc2C1 | 83.6
61 | c1ncc(C2OCCO2)s1 | 38.6
62 | C=CC(=O)N1CCC(c2cccc(C)c2)C1 (stereo not drawn) | 1.91
63 | CS(=O)(=O)OCC1CCOCC1 | 20
64 | Cc1nnnn1Cc1ccc(S(=O)(=O)F)cc1 | 18.2
65 | CC(C)c1ccc(C(C)NC(=O)CCl)cc1 (stereo not drawn) | 6.77
66 | O=C(CCCl)N1CCN(c2ccccn2)CC1 | 12.9
67 | O=C1CCCC(CCl)N1 (stereo not drawn) | 9.47
68 | C=CC(=O)NC1C2CCOC2C12CCC2 (stereo not drawn) | 8.04
69 | C=CC(=O)N(C)Cc1c(C)nn(C)c1Cl | 12.5
70 | Cn1nccc1-c1csc(CN2C(=O)CCC2=O)n1 | 13.4
71 | N#CN(CC(=O)N1CCCCCC1)c1ccc(F)cc1 | 6.88
72 | O=C(CCl)Nc1ccc2[nH]c(=O)[nH]c2c1 | 34.3
73 | OC1(CC2CO2)CCOC1 (stereo not drawn) | 9.69
74 | N#Cc1ncn(CC(=O)c2ccccc2F)n1 | 8.61
75 | O=C(C1CCOCC1)N1CCC(S(=O)(=O)F)C1 (stereo not drawn) | 19.5
76 | FC(F)(F)c1ccccc1OCC1CO1 (stereo not drawn) | 11.7
77 | Cc1ccc(C)c(Sc2ccc(NC(=O)CCl)cc2)c1 | 37
78 | Cc1ccc(C#N)c(B2OC(C)(C)C(C)(C)O2)c1 | 8.89

Row | Compound | Inhibition % [%]
79 | CCOc1cc(C=CC#N)ccc1OC | 0.489
80 | Cl.ClCCc1c[nH]nn1 | 10.9
81 | OB(O)c1ccccc1OCc1ccc(F)cc1Cl | 7.79
82 | C=CCn1c(C)cc(C(=O)CCl)c1C | 58.7
83 | CCn1cc(NS(=O)(=O)C=Cc2ccccc2)cn1 | 81.4
84 | Cc1ccc(CN2CC(S(=O)(=O)F)C2)o1 | 9.92
85 | N#Cc1cccc(N2CC(CC(F)F)C2)n1 | 7.52
86 | C=CC(=O)N1CC(S(=O)(=O)c2ccccc2F)C1 | 5.39
87 | CC(C)(C)c1cnc(Cn2cnc(C#N)n2)o1 | 0.984
88 | C=CC(=O)N1CCC(C(F)(F)F)c2ccccc21 (stereo not drawn) | 11
89 | CC1CCCN(C(=O)C=Cc2cn(C)c(=O)n(C)c2=O)C1 (stereo not drawn) | -7.83
90 | COC(=O)c1c(F)cccc1NS(=O)(=O)C1=CCCCC1 | 11.2
91 | CSc1ccc(Cn2cnc(C#N)n2)cc1 | 4.13
92 | C=CC(=O)Nc1ccc2c(c1)NC(=O)CS2 | 11.9
93 | CCOC(=O)N1CCC(NC(=O)CCl)CC1 | 8.38
94 | CN1C(=O)SC(Nc2ccc(F)c(Cl)c2)C1=O (stereo not drawn) | 19.3
95 | Cc1nc2c(C(=O)Nc3cccc(S(=O)(=O)F)c3)cccc2o1 | 43.6
96 | C=CC(=O)N1CCC(C2CCC2)C1 (stereo not drawn) | 11.7
97 | COc1cccc(NC2C=CS(=O)(=O)C2)c1 (stereo not drawn) | 4.85
98 | Cc1nn(C)c(Cl)c1Cn1c(-c2ccccc2)noc1=O | 3.8
99 | O=C(CCl)N1N=C(c2ccco2)CC1c1cccs1 (stereo not drawn) | 12.6
100 | N#CC(=Cc1ccc(C(=O)O)cc1)C(=O)N1CCCCC1 | 8.05
101 | C=CC(=O)NCC1CCCN(C)C1c1cccs1 (stereo not drawn) | 5.48
102 | CCN(CC)C(=O)C(C#N)=Cc1ccc2c(c1)OCCO2 | 6.48
103 | CCN(Cc1cnn(C)c1)c1ccc(C#N)nc1 | 16.4
104 | C=CC(=O)N1c2cc(OC)ccc2NC(=O)C1C (stereo not drawn) | 9.84

Row | Compound | Inhibition % [%]
105 | O=C1NC(c2ccco2)C12CCCC2 (stereo not drawn) | 2.45
106 | O=C(CCl)Nc1ccc(F)c(Cl)c1 | 21.3
107 | Cc1cc(C)n(CCCNc2ccnc(C#N)c2)n1 | 3.45
108 | CC(C)(C)c1nnc(NC(=O)CCl)s1 | 24.2
109 | C=CC(=O)NC1CC(OC)C12CCC2 (stereo not drawn) | 3.73
110 | CC1(C)C(=O)NC1C1CCN(Cc2ncccc2Cl)CC1 (stereo not drawn) | 8.54
111 | C=CC(=O)N(C)CC1=CCSC1 | 14.9
112 | C=CC(=O)NCC1(c2ccccn2)CCC1 | 8.99
113 | Cc1ccc([C@@H]2CN(Cc3ccccc3)C[C@H]2S(=O)(=O)F)cc1 (racemic) | 5.8
114 | C=CC(=O)N1CC(NC(C)=O)C1 | 9.47
115 | C=CC(=O)N1CC[C@@H](N2CCOCC2)[C@H]1C | 5.26
116 | C=CC(=O)Nc1ccc(N2CCCC2=O)cc1 | 11.3
117 | C=CC(=O)N1CCOCC1c1ccccc1 (stereo not drawn) | 0.671
118 | N#CNC(=O)c1ccccc1 | 8.33
119 | O=C(CCl)N1CCN(c2ccccc2[N+](=O)[O-])CC1 | 80.7
120 | Cc1cccc(NC(=O)CCl)c1C | 16.2
121 | COc1cccc(CN(C)C(=O)CCl)c1OC | 74.5
122 | CC1CC(N2CCCC2c2cccc(N(C)C)c2)C(=O)O1 (stereo not drawn) | 2.45
123 | Cc1cccc(B2OC(C)(C)C(C)(C)O2)c1C#N | 25.3
124 | C=CC(=O)NC1CCCc2cnn(C(C)C)c21 (stereo not drawn) | 12.6
125 | C=CC(=O)NCc1cc(C)no1 | 5.45
126 | C=CC(=O)N(C)C1CCCc2cccnc21 (stereo not drawn) | 7.75
127 | N#Cc1nccn1CC#Cc1ccc(F)cc1 | 5.26
128 | O=C(CCl)NCc1ccc(C(=O)N2CCOCC2)cc1 | 19.5
129 | O=C(CCl)N(Cc1ccsc1)C1CC1 | 14.9

Source: PMC9574860, “Chemical Toolkit for PARK7: Potent, Selective, and High-Throughput” (Journal of Medicinal Chemistry, 2022)
